In the RNAGym collection of RNA variant scans (doi:10.7554/elife.90254) one finds self-cleavage data, which are given here for 56 variants.

Read counts are not given, so values of variants with three or more changes are uncertain.

B1: LINE1-mini (parent)
chain: GGCAGAGCUCAACACAGCGUGGCAAAGUGGCUGUGGCUAGACUGCC

The data set covers variants of B1. Kind of data set: self-cleavage, relative activity (ratio to wild type); higher = more cleavage; in vitro, sequencing; the parent is a self-cleaving ribozyme.
Consider GGCAUAGCUCAACACAGCGGGGCAAGGUGGCUGUGGCUAGACUGCC [G5U U20G A26G], for which the self-cleavage was found to be 0.01. Regarding GGCAGCGCUAAACACACCGUGGGAAAGUGGCUAUGGCUAGACUGCC [A6C C10A G17C C23G G33A], the self-cleavage was determined as 0.02.

In the case of GGCAUAGCUCAACACAGCGUGGCAAAGUGGCUGUAGCAAGACUGCG [G5U G35A U38A C46G], the self-cleavage turned out to be 0.02. In the case of GGCAUAGCUCAACACAGCGGGGCAACGUGGCUGUGGCUAGACAGCC [G5U U20G A26C U43A] it was 0.19; in that of GGCAUAGCUCAACACAGCGGGAAAAAGUGGCUGUGGCUAGACUGCC [G5U U20G G22A C23A], 0.29. With GGCAGCGCUCCCCACAGCGUGGCAAAGUGGCUGUGGCUAGACUGCA [A6C A11C A12C C46A] the figure was 0.01. Take GGCAUAGCUCAACACAGCGGGGCAAAGUGGCAGUGGCUAGACUGCC [G5U U20G U32A]: the self-cleavage was determined as 0.02. In the case of GGCAGCGCUCAACUCAGCGUGGCAAAGUAGCUGUGGCUAGACUGCC [A6C A14U G29A] it was 0.13; in that of GGCAGCGAUCAAAACAGCGUGGGAAAGUGGCUGUGGCUAGACUGCC [A6C C8A C13A C23G], 0.63; in that of GGCAUAGCUCAACACAGCGCGGCAAAGUGGCUGUGGCAAGACUGCC [G5U U20C U38A], 0. As for GGCAGCGCUCAACAUAGCGUGGCUAAGUGGCAGUGGCUAGACUGCC [A6C C15U A24U U32A], the self-cleavage stood at 0.02. In the case of GGCAUAGCUCAACACAGCGUGGCAAAGUGGCUGAGGCUAAUCUGCC [G5U U34A G40A A41U] it was 0.05; in that of GGCAGCGCUCAACACAGAGUGGCAAAGUGGCUGUGGCUAAACUGCC [A6C C18A G40A], 0.03. As to GGCAUAGCUCAACACAGCGGUGCAAAGAGGCUGUGGCUAGUCUGCC [G5U U20G G21U U28A A41U], the self-cleavage worked out at 0.06. In the case of GGCAGCGCUCGACACAGCGUAUCAAAGUGGCUGUGGUUAGACUGCC [A6C A11G G21A G22U C37U] it was 0.02. With GGCAGCGCUAAACACAGCGUGACAAAGUCGAUGUGGCUAGACUGCC [A6C C10A G22A G29C C31A] the figure was 0.02; with GGCAGCGCUCGACACAGCGUGGCAAAGUGGCUGUGGCAAGACUGCU [A6C A11G U38A C46U], 0.03; with GGCAGCGCUCAGCACAGCUUUGCAAAGUGGCUGUGGCUAGACUGCC [A6C A12G G19U G21U], 0.01. Regarding GGCAGCGCUCGAGACAGCGUGGCAAAGUGGCUGUGGCUAGAUUGCC [A6C A11G C13G C42U], the self-cleavage came out at 0.02.

On to GGCAUAGCUCAACACAGCGUGGCAAAGUGGCUGUUGCUAGACCGCC [G5U G35U U43C], for which the self-cleavage was 0.03.

In the case of GGCAGCGCUCAACUCAGUGUGGCAAAGUGGCUGUGGCUAGACUCCA [A6C A14U C18U G44C C46A], the self-cleavage came to 0.02. In the case of GGCAUAGCUCAACACAGCGAGGCAAAGUGCCUGUGGCCAGACUGCC [G5U U20A G30C U38C], the self-cleavage was 0.01. With GGCAGCGCUCAACAAAGCGUGGCAAAGAGGCUGUGCCUAGACUGCC [A6C C15A U28A G36C] the figure was 0.03; with GGCAUAGCUCAACACAGCGUGGCAAAGUGGCUGUUGCUAGACUGCU [G5U G35U C46U], 0.1. Consider GGCAUAGCACAACAAAGUGUGGCAAAGUGGCUGUGACUAGACUGCC [G5U U9A C15A C18U G36A], for which the self-cleavage was determined as 0.09.

As to GGCAGCGCUCAACACAGCGUGGCAAGGUGGCUGUGGAUAGACUGCC [A6C A26G C37A], the self-cleavage was determined as 0.01. In the case of GGCAUAGCUCAACACAGCGUGGCAAAGUGGCUCUGGAUAGACUGAC [G5U G33C C37A C45A] it was 0.02.

In the case of GGCAGCGCUCAACACAGCGUGGCAAGGCGGCUGUGGCUAGACUGCC [A6C A26G U28C], the self-cleavage was determined as 1.55. In the case of GGCAGCGCUCAACACUGCGUGCCAAAGUGGCUGUGGCUAGACUGCC [A6C A16U G22C], the self-cleavage is 0.08. With GGCAGCGUUCAACACAGAGUGGCAAAGUGGCUGUGGCUAGACUGCU [A6C C8U C18A C46U] the figure was 0.18; with GGCAGCGCUCCACACAGCGUGGUAAAGUGGCUGUGGCUACACUGCC [A6C A11C C23U G40C], 0. As for GGCAGCGCUCAAAACAGCGUUGCAAAGUGGCUGUGGCUAGCCUGCC [A6C C13A G21U A41C], the self-cleavage was determined as 0.03. In the case of GGCAUAGCUCAACACAGCGUGGCAAAGCGGCUGUGGCUAUACUGCC [G5U U28C G40U] it was 0.

For GGCAGCGCUCAACACGGCGUGGCAAACUGGCUGUGGCUAGACUGCC [A6C A16G G27C], the self-cleavage stood at 0.17. With GGCAGCGCUCAACGAAGUGUGGCAAAGUGGCUGGGACUAGACUGAC [A6C A14G C15A C18U U34G G36A C45A], the self-cleavage came out at 0.01.

As to GGCAGCGCUCAACCCAGCGUGGCAAAGAGGCUGUGGCCAGAUUGCC [A6C A14C U28A U38C C42U], the self-cleavage was 0.01. In the case of GGCAGCGCUCAAAACAGCGUGGCAAAGUGGCUGUGGCUAUACUGCC [A6C C13A G40U] it was 0.03; in that of GGCAGCGCUCUACACCGCGUGCCAAAGUGGCUGUGGCUAGAUUGCC [A6C A11U A16C G22C C42U], 0.05; in that of GGCAGCGCUCAAAACAGCGUGGCAAAGUGGCUGUAUCUAGACUUCC [A6C C13A G35A G36U G44U], 0.06.

With GGCAGCGUUCAACACGGCGUGGCAAAGUGGCUGUGGUUAGACUGCC [A6C C8U A16G C37U], the self-cleavage is 0.03.

Turning to GGCAGCGAUCAACACAGCGUGGCAGAGUGGCUGUGGCUAGAAUCCC [A6C C8A A25G C42A G44C], the self-cleavage is 0.17. GGCAGCGCUCAACAUAGCGUGGCAAAGUGGCUGUGACUAGCCUGCA [A6C C15U G36A A41C C46A]: the self-cleavage is 0.05. For the variant GGCAGCGCUCAACCCAGCGUGGCAAAGUGGCUGUGGCUAUACUGCC [A6C A14C G40U], the self-cleavage was determined as 0.07. In the case of GGCAGCGCUCAACACAGCGUGGCAAAGUGGCUGUGGCUAGUUUCCC [A6C A41U C42U G44C] it was 0.04; in that of GGCAUAGCACAACACUGCGUGGCAAAGUGGAUGUGGCUAGACUGGU [G5U U9A A16U C31A C45G C46U], 0.18; in that of GGCAGCGCUCAACACAGCGUGGCAAAGUGGCUGUGGCUCGACUGUC [A6C A39C C45U], 0.09. On to GGCAGCGCUCAACACAGCGUGGCAUAGUGGGUGGGGCAAGCCUGCC [A6C A25U C31G U34G U38A A41C], for which the self-cleavage was found to be 0.02. For the variant GGCAGCGCUCAUCCCAGCGUUGCAAAGUGACUGUGGCUAUACUGCC [A6C A12U A14C G21U G30A G40U], the self-cleavage was found to be 0.03. Regarding GGCAGCGAUCAACAAAGCGUGGUAAAGUGGCUGUGGCUAGGCUGCC [A6C C8A C15A C23U A41G], the self-cleavage is 0.57. As for GGCAUAGCUCAACACAGCGUGGCAAAGGGGCUGUGGCUAGACUGUC [G5U U28G C45U], the self-cleavage turned out to be 0. GGCAGCGCUGAACACAGCGUGGCAAAGUGGCUGUGGCUAGACAGUC [A6C C10G U43A C45U]: the self-cleavage was found to be 0.

GGCAGCGCUUAACAAAGCGUGGCAAAGUGGCUGUGGCUAGACUGCC [A6C C10U C15A]: the self-cleavage was found to be 0.03. In the case of GGCAGCGCUAAACACAGCGUGGCAAAGUGGCUGUGGCUAGACUUCC [A6C C10A G44U] it was 0.03; in that of GGCAGCGCUCAACUCAGCGUGGCAAAGUCGCUGUGGCCAGACUGCC [A6C A14U G29C U38C], 0.22; in that of GGCAGCGCUCAACACGGCGUGGCAAAGUGGCUGUGGCUAGACUGUA [A6C A16G C45U C46A], 0.51. GGCAGCGCUCCACAUAGCGUGGCAAAGUGGCUGUGGCCAGACUGCC [A6C A11C C15U U38C]: the self-cleavage stood at 0.01.
